Results from the supplement of paper PMC11417369.
This is one part of the list.

Tested on: PF3D7_0420300 AP2 domain 1 (GST-tagged)
Test: gcPBM binding intensity (ln(normalized median fluorescence intensity)); higher = stronger DNA binding
Outline: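 Binding of GST-tagged P. falciparum DNA-binding domains, expressed in E. coli and used at about 25 μg on average, was carried out for 1 h in 1× PBS containing 1% milk, 0.2 mg/ml BSA, 0.5% salmon testes DNA and 0.03% Triton X-100. The target was an Agilent 4 × 180k array of primer-extended double-stranded 36-bp intergenic genomic probes plus negative controls, read with Alexa488 anti-GST antibody at 488 nm. Binding intensity is the highest Masliner-normalised natural-log median intensity across replicate spots of either probe orientation.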

Q: For “ATAAAATGAACAAACACACACACATATATATATATA [CACACA_site2402]”, which “gcPBM binding intensity (ln)” value is on record?
A: The value was 9.89.

Q: How did the “gcPBM binding intensity (ln)” value turn out when “AAGTTTTATTTAAATTGTACTAAAATTTTTATATTA [XGTACX_site7065]” was run?
A: The value was 9.05.

Q: For “TATTTAAGAATATGAAGTACATATATTATTTAAAAA [XGTACX_site7897]”, which “gcPBM binding intensity (ln)” value is on record?
A: Its value is 9.

Q: Which “gcPBM binding intensity (ln)” value does the source give for “CATATAAATAAATACACACACACACGCCTTATAATT [CACACA_site7830]” here?
A: The value was 10.2.

Q: “TATATAGGTATCATTACACACATGTATACTTATTTG [CACACA_site7864]” was tested. Which “gcPBM binding intensity (ln)” value did it give?
A: Its value is 9.61.

Q: “CCTAAAAAAAAGAAATGATATACATATGTATATATA [GTGCAC_negctrl_site100]” was tested. Which “gcPBM binding intensity (ln)” value did it give?
A: The value was 9.14.

Q: How did the “gcPBM binding intensity (ln)” value turn out when “TTTTTCTTTCTCTATTGTACACATGGAAACACATAA [XGTACX_site4601]” was run?
A: The value was 9.23.

Q: How did the “gcPBM binding intensity (ln)” value turn out when “TACAATTTTTTAAATGCACACAAAAGGAATAAATAA [CACACA_site8075]” was run?
A: The value was 9.49.

Q: How did the “gcPBM binding intensity (ln)” value turn out when “TAATATATGTATTGCACACCTATAACCATTATTTCT [CACACA_site1498]” was run?
A: The value was 9.51.

Q: “AAAAGCAAGTTCCAGGGTACATATATATGAAAAAAC [XGTACX_site2408]” was tested. Which “gcPBM binding intensity (ln)” value did it give?
A: The value was 9.58.

Q: With “AAATATATTTTACATTGTACATGAATAAACTATAAA [XGTACX_site2080]” as the sequence, how does the “gcPBM binding intensity (ln)” value read?
A: The value was 9.13.

Q: How did the “gcPBM binding intensity (ln)” value turn out when “AAAAATTAAATAAATTTACACACTAATAATTACATA [CACACA_site8260]” was run?
A: Its value is 9.3.

Q: For “AAAAATATGTCCATGAAAAGGATAGGCAGGTAATCA [XGTACX_negctrl_site93]”, which “gcPBM binding intensity (ln)” value is on record?
A: Its value is 9.5.

Q: Which “gcPBM binding intensity (ln)” value does the source give for ACGTTAAAATATTGGGTGCTAACACAATAAAAATAA here?
A: Its value is 9.29.

Q: Which “gcPBM binding intensity (ln)” value does the source give for “TATATGTTATATTGGACACACACAATAAACATTATG [CACACA_site8480]” here?
A: The value was 9.62.

Q: With “AAACATAAAGAAAAAAAAAATATATATTTATTTATT [GTGCAC_negctrl_site357]” as the sequence, how does the “gcPBM binding intensity (ln)” value read?
A: Its value is 9.13.

Q: ATATATTAACAAAAGGTGCTTTTGGCAAAGTATAAT was tested. Which “gcPBM binding intensity (ln)” value did it give?
A: Its value is 9.43.

Q: Which “gcPBM binding intensity (ln)” value does the source give for “ATAAAAATGGTGTTAACACACACATATATATATATA [CACACA_site8089]” here?
A: The value was 9.48.

Q: “TTATTTAAATATTGATGTACTCTCCTTATTATAATA [XGTACX_site1240]” was tested. Which “gcPBM binding intensity (ln)” value did it give?
A: The value was 9.26.

Q: How did the “gcPBM binding intensity (ln)” value turn out when “GGTAATTATTTTGGTTGTACTCAAATATATAATATT [XGTACX_site291]” was run?
A: The value was 9.45.

Q: How did the “gcPBM binding intensity (ln)” value turn out when “ATGTCATAAATGTACGCACACATACATAAACATATA [CACACA_site4530]” was run?
A: The value was 9.37.

Q: With “TTCATTTTAATTTCCAGTACACATATATATACATAT [XGTACX_site558]” as the sequence, how does the “gcPBM binding intensity (ln)” value read?
A: Its value is 9.42.

Q: For “ATTTATTTCTATAATACACACAAATATCTTAATTAA [CACACA_site7801]”, which “gcPBM binding intensity (ln)” value is on record?
A: Its value is 9.31.

Q: For “AATATAATACAATATTGTACATAATATAAATTAAAA [XGTACX_site4064]”, which “gcPBM binding intensity (ln)” value is on record?
A: The value was 9.21.

Q: ATTATATTTATGTTGGTGCATTATACATGAAATTTA was tested. Which “gcPBM binding intensity (ln)” value did it give?
A: The value was 9.2.
